Experimental data as given in patent publication US20050112748A1 (published 2005).
Blank lines part the entries; values can stand above or below the binder they belong to.

Molecular target: T1, HA-tagged full-length N-WASP expressed in Balb/3T3 cells (UniProt Q95107 1-505)
T1 construct: also called HA-tagged N-WASP; not shown: hemagglutinin (HA)3-tag of the pEF-BOS/HA vector
Assay: GST pull-down from Balb/3T3 lysate, anti-HA immunoblot
Source text: Coding sequences of the wild-type small GTPase were ligated in-frame to a glutathione S-transferase (GST)-tag of pGEX-2T vector (Amersham Biosciences). The GST-tagged recombinant proteins were expressed in E. coli strain XL1-Blue and affinity-purified with glutathione-Sepharose 4B (Amersham Biosciences). The cDNA encoding full-length N-WASP was fused in-frame to the hemagglutinin (HA)₃-tag of pEF-BOS/HA vector. This recombinant plasmid was transfected to Balb/3T3 cells. Twenty-four hours after the transfection, the cells were lysed with RIPA buffer (150 mM NaCl, 50 mM Tris-HCl, pH 8.0, 1% Nonidet P-40, 0.5% Na deoxycholate, and 0.1% SDS) containing 1 mM dithiothreitol, 0.1 mM phenylmethylsulfonyl fluoride, and 4 mM MgCl₂ and centrifuged for 15 minutes at 16,000×g. […] The bound proteins were eluted with 5 mM glutathione in 50 mM Tris-HCl (pH 8.0), The eluted proteins were subjected to SDS-PAGE, and then HA-tagged N-WASP was detected by immunoblotting with anti-HA-tag polyclonal antibody (pAb) (MBL), horseradish peroxidase-conjugated goat anti-rabbit IgG (Bio-Rad) as a secondary antibody, and Renaissance western blot chemiluminescence reagent Plus (NEN Life Science Products).
Next, the binding of these Cdc42 subfamily proteins to N-WASP was assessed by pull-down assay. […]

T1 sequence (Q95107 whole entry): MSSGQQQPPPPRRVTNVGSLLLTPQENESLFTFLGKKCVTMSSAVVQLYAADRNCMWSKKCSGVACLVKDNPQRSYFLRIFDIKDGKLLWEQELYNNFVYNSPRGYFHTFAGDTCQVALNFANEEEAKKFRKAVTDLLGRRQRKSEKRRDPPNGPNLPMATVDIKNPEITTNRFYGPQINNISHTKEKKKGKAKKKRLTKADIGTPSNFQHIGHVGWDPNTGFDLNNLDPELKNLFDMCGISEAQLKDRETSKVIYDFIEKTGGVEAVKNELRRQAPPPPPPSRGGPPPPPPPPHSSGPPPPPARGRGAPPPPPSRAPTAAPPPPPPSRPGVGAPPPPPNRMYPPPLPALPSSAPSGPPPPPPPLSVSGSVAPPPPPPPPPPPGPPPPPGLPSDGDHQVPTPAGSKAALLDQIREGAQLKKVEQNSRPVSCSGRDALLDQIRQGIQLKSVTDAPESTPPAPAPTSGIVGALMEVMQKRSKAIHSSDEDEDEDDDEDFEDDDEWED

binding result: no binding
B1: GST-tagged RhoA loaded with GTPγS (enzyme)
chain: not shown
notes: Control of the pull-down assay, loaded with 1 mM GTPγS; the methods speak of 'the wild-type small GTPase' without naming RhoA; also called GTPγS-loaded RhoA; not shown: glutathione S-transferase (GST)-tag of the pGEX-2T vector (Amersham Biosciences)

binding result: no binding
B2: GST-tagged RhoA loaded with GDP (enzyme)
chain: not shown
notes: Same polypeptide as m18 but loaded with 1 mM GDP; also called GDP-loaded RhoA; not shown: glutathione S-transferase (GST)-tag of the pGEX-2T vector (Amersham Biosciences)
